Positions count from the first letter of the chain named. Some of the results follow.
T1: RBFOX1 RRM RbFoxmut (Fox-RRM*) (Homo sapiens, UniProt Q9NWB1 109-208, R118D;E147R;N151S;E152T)
T1 sequence: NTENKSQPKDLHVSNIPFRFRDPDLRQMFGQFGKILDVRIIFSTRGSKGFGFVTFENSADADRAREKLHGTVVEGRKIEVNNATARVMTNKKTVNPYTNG

B1: CUGCUUA (DNA:RNA)
RNA: GGGAGACCGGAAUUCAGAUUGUCCCUGCUUAUUAAAUCCCGUCGUAGCCACCA
DNA 1: CAATCTGAATTCCGGTCTCCC
DNA 2: TGGTGGCTACGACGGGATT
B2: AAUCUAU (DNA:RNA)
RNA: B1 RNA with C25A, U26A, G27U, U30A, A31U
DNA 1: CAATCTGAATTCCGGTCTCCC
DNA 2: TGGTGGCTACGACGGGATT
B3: AACCCGG (DNA:RNA)
RNA: B1 RNA with C25A, U26A, G27C, U29C, U30G, A31G
DNA 1: CAATCTGAATTCCGGTCTCCC
DNA 2: TGGTGGCTACGACGGGATT
B4: GCCGGAC (DNA:RNA)
RNA: GGGAGACCGGAAUUCAGAUUGUCCGCCGGACUUAAAUCCCGUCGUAGCCACCA
DNA 1: CAATCTGAATTCCGGTCTCCC
DNA 2: TGGTGGCTACGACGGGATT
B5: GCCGUAC (DNA:RNA)
RNA: B4 RNA with G29U
DNA 1: CAATCTGAATTCCGGTCTCCC
DNA 2: TGGTGGCTACGACGGGATT
B6: UAGAAUA (DNA:RNA)
RNA: B1 RNA with C25U, U26A, C28A, U29A
DNA 1: CAATCTGAATTCCGGTCTCCC
DNA 2: TGGTGGCTACGACGGGATT
B7: UGGCCAA (DNA:RNA)
RNA: B1 RNA with C25U, U26G, U29C, U30A
DNA 1: CAATCTGAATTCCGGTCTCCC
DNA 2: TGGTGGCTACGACGGGATT
B8: GAUAAUC (DNA:RNA)
RNA: B4 RNA with C26A, C27U, G28A, G29A, A30U
DNA 1: CAATCTGAATTCCGGTCTCCC
DNA 2: TGGTGGCTACGACGGGATT
B9: ACCCAUG (DNA:RNA)
RNA: B1 RNA with C25A, U26C, G27C, U29A, A31G
DNA 1: CAATCTGAATTCCGGTCTCCC
DNA 2: TGGTGGCTACGACGGGATT
B10: GACCUCU (DNA:RNA)
RNA: B1 RNA with C25G, U26A, G27C, U30C, A31U
DNA 1: CAATCTGAATTCCGGTCTCCC
DNA 2: TGGTGGCTACGACGGGATT
B11: GACAGGU (DNA:RNA)
RNA: B4 RNA with C26A, G28A, A30G, C31U
DNA 1: CAATCTGAATTCCGGTCTCCC
DNA 2: TGGTGGCTACGACGGGATT
B12: CUAGCCG (DNA:RNA)
RNA: B1 RNA with G27A, C28G, U29C, U30C, A31G
DNA 1: CAATCTGAATTCCGGTCTCCC
DNA 2: TGGTGGCTACGACGGGATT
B13: GAGCGUG (DNA:RNA)
RNA: B1 RNA with C25G, U26A, U29G, A31G
DNA 1: CAATCTGAATTCCGGTCTCCC
DNA 2: TGGTGGCTACGACGGGATT
B14: AAGCAUU (DNA:RNA)
RNA: B1 RNA with C25A, U26A, U29A, A31U
DNA 1: CAATCTGAATTCCGGTCTCCC
DNA 2: TGGTGGCTACGACGGGATT
B15: AUUGCUC (DNA:RNA)
RNA: B1 RNA with C25A, G27U, C28G, U29C, A31C
DNA 1: CAATCTGAATTCCGGTCTCCC
DNA 2: TGGTGGCTACGACGGGATT
B16: GGAUCAA (DNA:RNA)
RNA: B4 RNA with C26G, C27A, G28U, G29C, C31A
DNA 1: CAATCTGAATTCCGGTCTCCC
DNA 2: TGGTGGCTACGACGGGATT
B17: UCUGGUG (DNA:RNA)
RNA: B4 RNA with G25U, C27U, A30U, C31G
DNA 1: CAATCTGAATTCCGGTCTCCC
DNA 2: TGGTGGCTACGACGGGATT
B18: CCGGAAG (DNA:RNA)
RNA: B4 RNA with G25C, C27G, G29A, C31G
DNA 1: CAATCTGAATTCCGGTCTCCC
DNA 2: TGGTGGCTACGACGGGATT
B19: AACAAAU (DNA:RNA)
RNA: B4 RNA with G25A, C26A, G28A, G29A, C31U
DNA 1: CAATCTGAATTCCGGTCTCCC
DNA 2: TGGTGGCTACGACGGGATT
B20: AAAAGAU (DNA:RNA)
RNA: B4 RNA with G25A, C26A, C27A, G28A, C31U
DNA 1: CAATCTGAATTCCGGTCTCCC
DNA 2: TGGTGGCTACGACGGGATT
B21: UAGGUAU (DNA:RNA)
RNA: B1 RNA with C25U, U26A, C28G, U30A, A31U
DNA 1: CAATCTGAATTCCGGTCTCCC
DNA 2: TGGTGGCTACGACGGGATT
B22: CCUAGCA (DNA:RNA)
RNA: B1 RNA with U26C, G27U, C28A, U29G, U30C
DNA 1: CAATCTGAATTCCGGTCTCCC
DNA 2: TGGTGGCTACGACGGGATT
B23: AUCGAAU (DNA:RNA)
RNA: B4 RNA with G25A, C26U, G29A, C31U
DNA 1: CAATCTGAATTCCGGTCTCCC
DNA 2: TGGTGGCTACGACGGGATT
B24: CGGUCUA (DNA:RNA)
RNA: B1 RNA with U26G, C28U, U29C
DNA 1: CAATCTGAATTCCGGTCTCCC
DNA 2: TGGTGGCTACGACGGGATT
B25: AUACAGA (DNA:RNA)
RNA: B1 RNA with C25A, G27A, U29A, U30G
DNA 1: CAATCTGAATTCCGGTCTCCC
DNA 2: TGGTGGCTACGACGGGATT
B26: AGGCAGC (DNA:RNA)
RNA: B1 RNA with C25A, U26G, U29A, U30G, A31C
DNA 1: CAATCTGAATTCCGGTCTCCC
DNA 2: TGGTGGCTACGACGGGATT
B27: CGAGUUU (DNA:RNA)
RNA: B1 RNA with U26G, G27A, C28G, A31U
DNA 1: CAATCTGAATTCCGGTCTCCC
DNA 2: TGGTGGCTACGACGGGATT
B28: UAAGGUA (DNA:RNA)
RNA: B1 RNA with C25U, U26A, G27A, C28G, U29G
DNA 1: CAATCTGAATTCCGGTCTCCC
DNA 2: TGGTGGCTACGACGGGATT
B29: UUACUGC (DNA:RNA)
RNA: B1 RNA with C25U, G27A, U30G, A31C
DNA 1: CAATCTGAATTCCGGTCTCCC
DNA 2: TGGTGGCTACGACGGGATT
B30: GACCUAA (DNA:RNA)
RNA: B1 RNA with C25G, U26A, G27C, U30A
DNA 1: CAATCTGAATTCCGGTCTCCC
DNA 2: TGGTGGCTACGACGGGATT
B31: CGGAUAU (DNA:RNA)
RNA: B1 RNA with U26G, C28A, U30A, A31U
DNA 1: CAATCTGAATTCCGGTCTCCC
DNA 2: TGGTGGCTACGACGGGATT

Target: T1, RBFOX1 RRM RbFoxmut (Fox-RRM*)
Assay: EMSA; HiTS-Eq, 1 nM pool, 10 min; buffer printed only for the single-RNA assays: 10 mM Tris pH 7.5, 150 mM NaCl, 3.4 mM EDTA, 0.001% NP-40, 30 C
Conditions: tags: His6 N-terminal (pET28a); label: 5' 32P
Summary of the method: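 These values rest on relative association constants, computed from read-count changes of each RNA species versus the control reaction and normalised to the cognate motif. Reads came from free RNA recovered by 8% native PAGE after purified RbFox RRM (wild type or mutant) at increasing concentrations was equilibrated for 10 min in 50 µL with 1 nM of a 5′-radiolabelled pool with 7 randomized nucleotides and DNA-annealed flanks.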

With B1 as the binder, how does the binding signal read?
The binding signal was 0.122 KA relative to UGCAUGU.

Which binding signal does the source give for B2 here?
Its binding signal is 0.0618 KA relative to UGCAUGU.

B3 was tested. Which binding signal did it give?
Its binding signal is 0.0868 KA relative to UGCAUGU.

How did the binding signal turn out when B4 was run?
The binding signal was 0.0884 KA relative to UGCAUGU.

B5 was tested. Which binding signal did it give?
The binding signal was 0.0902 KA relative to UGCAUGU.

With B6 as the binder, how does the binding signal read?
Its binding signal is 0.111 KA relative to UGCAUGU.

B7 was tested. Which binding signal did it give?
Its binding signal is 0.0766 KA relative to UGCAUGU.

For B8, which binding signal is on record?
The binding signal was 0.0452 KA relative to UGCAUGU.

How did the binding signal turn out when B9 was run?
The binding signal was 0.11 KA relative to UGCAUGU.

How did the binding signal turn out when B10 was run?
The binding signal was 0.0728 KA relative to UGCAUGU.

How did the binding signal turn out when B11 was run?
The binding signal was 0.0716 KA relative to UGCAUGU.

With B12 as the binder, how does the binding signal read?
Its binding signal is 0.106 KA relative to UGCAUGU.

How did the binding signal turn out when B13 was run?
Its binding signal is 0.129 KA relative to UGCAUGU.

How did the binding signal turn out when B14 was run?
Its binding signal is 0.0894 KA relative to UGCAUGU.

With B15 as the binder, how does the binding signal read?
The binding signal was 0.0973 KA relative to UGCAUGU.

Which binding signal does the source give for B16 here?
Its binding signal is 0.131 KA relative to UGCAUGU.

How did the binding signal turn out when B17 was run?
Its binding signal is 0.133 KA relative to UGCAUGU.

For B18, which binding signal is on record?
The binding signal was 0.111 KA relative to UGCAUGU.

For B19, which binding signal is on record?
Its binding signal is 0.0524 KA relative to UGCAUGU.

B20 was tested. Which binding signal did it give?
Its binding signal is 0.0737 KA relative to UGCAUGU.

Which binding signal does the source give for B21 here?
Its binding signal is 0.117 KA relative to UGCAUGU.

With B22 as the binder, how does the binding signal read?
Its binding signal is 0.119 KA relative to UGCAUGU.

Which binding signal does the source give for B23 here?
The binding signal was 0.16 KA relative to UGCAUGU.

With B24 as the binder, how does the binding signal read?
Its binding signal is 0.0658 KA relative to UGCAUGU.

How did the binding signal turn out when B25 was run?
The binding signal was 0.0573 KA relative to UGCAUGU.

With B26 as the binder, how does the binding signal read?
Its binding signal is 0.0622 KA relative to UGCAUGU.

B27 was tested. Which binding signal did it give?
The binding signal was 0.0899 KA relative to UGCAUGU.

With B28 as the binder, how does the binding signal read?
The binding signal was 0.095 KA relative to UGCAUGU.

How did the binding signal turn out when B29 was run?
The binding signal was 0.0966 KA relative to UGCAUGU.

How did the binding signal turn out when B30 was run?
Its binding signal is 0.0808 KA relative to UGCAUGU.

With B31 as the binder, how does the binding signal read?
The binding signal was 0.0924 KA relative to UGCAUGU.
